Reference: patent publication US20230322822A1, “ARYL PHOSPHOROUS OXIDE COMPOUNDS AND USE THEREOF” (Chengdu Di'ao Jiuhong Pharmaceutical Factory, priority 2020, published 2023)

What was measured:
[1] = system: Ba/F3 cells expressing EGFR-T790M/L858R; assay: Cell anti-proliferation test 1 (CTG), BaF3 EGFR-T790M/L858R; conditions: Mus musculus, BaF3, 72 h, read-out: EGFR-T790M/L858R IC50
EML4-ALK kinase = EML4-ALK kinase (Homo sapiens (Human), UniProt Q9HC35+Q9UM73); assay: Enzymatic activity test 2 (ADP-Glo) EML4-ALK kinase; type: biochemical
Experimental: (§1) • 1. […] Test information:
(§2) To assess the effect of compounds on the activity of EML4-ALK kinases, kinase activity was tested by measuring ATP consumption in an enzymatic reaction using an ADP-Glo (Promega Corporation) kit. Samples to be tested were dissolved in DMSO and diluted in a gradient. In a microplate, an EML4-ALK kinase, a reaction buffer (containing Tris-HCl with a pH of 7.5, MgCl2, DTT and BSA), a kinase substrate IGF1 and a sample (a total volume of 20 μL per well) were added per well, while a blank control (no enzyme and sample) and a negative control (no sample) were set up; added with 5 μL of ATP, and reacted at 23° C. for 60 minutes; added with ADP-Glo Reagent, and continuously reacted for 40 minutes at room temperature to inactivate the redundant ATP; then, added with a kinase detection reagent, and reacted at room temperature for 30 minutes, then the chemiluminescence intensity L of each well was measured. […] IC50 values were calculated according to the above calculation using 4Parameter Logistic Model in XLfit software. • 3.

EGFR-C797S/T790M/L858R = EGFR-C797S/T790M/L858R (Homo sapiens (Human), UniProt P00533, C797S/L858R/T790M); assay: Enzymatic activity test (ADP-Glo) EGFR-C797S/T790M/L858R; type: biochemical; conditions: kinase
Experimental: as §1
as §2, with “of wild-type and mutant EGFR” for “of EML4-ALK”, “an EGFR” for “an EML4-ALK”, “substrate Poly(Glu4, Tyr1)” for “substrate IGF1”, “up; incubated for 15 minutes at 23° C.;” for “up;”, “a Kinase Detection Reagent,” for “a kinase detection reagent,”

EGFR-WT = EGFR-WT (Homo sapiens (Human), UniProt P00533); assay: Enzymatic activity test (ADP-Glo) EGFR-WT; type: biochemical; conditions: kinase
Experimental: as §1
as §2, with “of wild-type and mutant EGFR” for “of EML4-ALK”, “an EGFR” for “an EML4-ALK”, “substrate Poly(Glu4, Tyr1)” for “substrate IGF1”, “up; incubated for 15 minutes at 23° C.;” for “up;”, “a Kinase Detection Reagent,” for “a kinase detection reagent,”

[2] = system: Ba/F3 cells expressing EGFR-T790M/Del19; assay: Cell anti-proliferation test 1 (CTG), BaF3 EGFR-T790M/Del19; conditions: Mus musculus, BaF3, 72 h, read-out: EGFR-T790M/Del19 IC50

Sequence of EGFR-WT (P00533 25-1210): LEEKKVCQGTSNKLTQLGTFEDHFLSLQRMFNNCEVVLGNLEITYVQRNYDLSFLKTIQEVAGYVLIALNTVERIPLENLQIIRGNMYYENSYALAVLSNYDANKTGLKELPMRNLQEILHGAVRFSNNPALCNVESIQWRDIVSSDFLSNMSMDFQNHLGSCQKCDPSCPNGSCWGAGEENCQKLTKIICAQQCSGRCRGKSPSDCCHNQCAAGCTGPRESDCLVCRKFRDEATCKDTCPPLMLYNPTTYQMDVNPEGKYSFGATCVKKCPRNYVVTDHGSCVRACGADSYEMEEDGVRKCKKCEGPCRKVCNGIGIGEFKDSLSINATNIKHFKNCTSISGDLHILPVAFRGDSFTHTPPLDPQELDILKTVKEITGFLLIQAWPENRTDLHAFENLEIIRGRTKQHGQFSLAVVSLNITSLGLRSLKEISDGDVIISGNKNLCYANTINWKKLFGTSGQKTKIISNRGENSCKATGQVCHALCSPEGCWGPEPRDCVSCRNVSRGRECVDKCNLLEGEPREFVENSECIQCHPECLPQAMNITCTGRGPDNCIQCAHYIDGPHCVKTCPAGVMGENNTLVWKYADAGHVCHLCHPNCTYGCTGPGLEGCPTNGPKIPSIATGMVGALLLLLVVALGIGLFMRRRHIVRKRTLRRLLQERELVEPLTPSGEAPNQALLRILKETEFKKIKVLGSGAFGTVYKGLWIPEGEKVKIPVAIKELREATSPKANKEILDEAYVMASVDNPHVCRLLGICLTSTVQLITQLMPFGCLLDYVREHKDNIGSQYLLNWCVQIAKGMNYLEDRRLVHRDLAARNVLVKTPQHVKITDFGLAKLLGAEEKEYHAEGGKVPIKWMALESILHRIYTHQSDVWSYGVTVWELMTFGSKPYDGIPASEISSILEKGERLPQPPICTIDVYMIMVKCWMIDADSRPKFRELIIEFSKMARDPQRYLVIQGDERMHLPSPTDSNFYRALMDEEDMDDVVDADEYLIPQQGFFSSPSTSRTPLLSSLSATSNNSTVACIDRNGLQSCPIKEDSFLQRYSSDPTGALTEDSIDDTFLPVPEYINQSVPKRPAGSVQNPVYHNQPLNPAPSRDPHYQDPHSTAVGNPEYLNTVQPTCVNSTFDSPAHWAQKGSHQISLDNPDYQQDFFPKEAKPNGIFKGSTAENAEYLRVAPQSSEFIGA
Sequence of EML4-ALK kinase (Q9UM73 other isoform, or with tags, fused parts or gaps): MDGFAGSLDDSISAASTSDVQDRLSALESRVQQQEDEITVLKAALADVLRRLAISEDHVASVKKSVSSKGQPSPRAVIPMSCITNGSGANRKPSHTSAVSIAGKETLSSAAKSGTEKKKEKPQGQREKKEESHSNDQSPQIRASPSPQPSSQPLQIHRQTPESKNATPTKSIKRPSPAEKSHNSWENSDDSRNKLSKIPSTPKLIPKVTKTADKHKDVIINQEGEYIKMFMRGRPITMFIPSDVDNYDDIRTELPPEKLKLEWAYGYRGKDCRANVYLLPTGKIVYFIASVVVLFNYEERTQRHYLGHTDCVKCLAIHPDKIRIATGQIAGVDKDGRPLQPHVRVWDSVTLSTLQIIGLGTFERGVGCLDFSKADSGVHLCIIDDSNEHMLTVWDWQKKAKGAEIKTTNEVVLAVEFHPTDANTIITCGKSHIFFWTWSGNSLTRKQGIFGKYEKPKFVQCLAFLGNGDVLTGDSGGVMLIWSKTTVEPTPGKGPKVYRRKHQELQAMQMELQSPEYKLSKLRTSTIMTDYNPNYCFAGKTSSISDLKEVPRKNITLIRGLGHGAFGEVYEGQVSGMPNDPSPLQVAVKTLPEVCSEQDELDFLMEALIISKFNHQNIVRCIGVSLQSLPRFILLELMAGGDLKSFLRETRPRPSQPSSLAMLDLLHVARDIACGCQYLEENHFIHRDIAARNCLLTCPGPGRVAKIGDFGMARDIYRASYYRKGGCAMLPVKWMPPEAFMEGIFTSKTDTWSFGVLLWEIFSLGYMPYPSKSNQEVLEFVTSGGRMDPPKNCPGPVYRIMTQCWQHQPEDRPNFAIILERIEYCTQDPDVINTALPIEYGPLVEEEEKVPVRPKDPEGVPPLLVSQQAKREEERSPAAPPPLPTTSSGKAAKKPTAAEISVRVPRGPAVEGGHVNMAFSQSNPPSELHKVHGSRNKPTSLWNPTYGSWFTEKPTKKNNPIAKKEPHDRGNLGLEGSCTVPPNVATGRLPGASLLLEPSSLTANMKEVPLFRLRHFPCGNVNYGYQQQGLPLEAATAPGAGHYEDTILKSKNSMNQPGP
Sequence of EGFR-C797S/T790M/L858R (P00533 25-1210 T790M/C797S/L858R): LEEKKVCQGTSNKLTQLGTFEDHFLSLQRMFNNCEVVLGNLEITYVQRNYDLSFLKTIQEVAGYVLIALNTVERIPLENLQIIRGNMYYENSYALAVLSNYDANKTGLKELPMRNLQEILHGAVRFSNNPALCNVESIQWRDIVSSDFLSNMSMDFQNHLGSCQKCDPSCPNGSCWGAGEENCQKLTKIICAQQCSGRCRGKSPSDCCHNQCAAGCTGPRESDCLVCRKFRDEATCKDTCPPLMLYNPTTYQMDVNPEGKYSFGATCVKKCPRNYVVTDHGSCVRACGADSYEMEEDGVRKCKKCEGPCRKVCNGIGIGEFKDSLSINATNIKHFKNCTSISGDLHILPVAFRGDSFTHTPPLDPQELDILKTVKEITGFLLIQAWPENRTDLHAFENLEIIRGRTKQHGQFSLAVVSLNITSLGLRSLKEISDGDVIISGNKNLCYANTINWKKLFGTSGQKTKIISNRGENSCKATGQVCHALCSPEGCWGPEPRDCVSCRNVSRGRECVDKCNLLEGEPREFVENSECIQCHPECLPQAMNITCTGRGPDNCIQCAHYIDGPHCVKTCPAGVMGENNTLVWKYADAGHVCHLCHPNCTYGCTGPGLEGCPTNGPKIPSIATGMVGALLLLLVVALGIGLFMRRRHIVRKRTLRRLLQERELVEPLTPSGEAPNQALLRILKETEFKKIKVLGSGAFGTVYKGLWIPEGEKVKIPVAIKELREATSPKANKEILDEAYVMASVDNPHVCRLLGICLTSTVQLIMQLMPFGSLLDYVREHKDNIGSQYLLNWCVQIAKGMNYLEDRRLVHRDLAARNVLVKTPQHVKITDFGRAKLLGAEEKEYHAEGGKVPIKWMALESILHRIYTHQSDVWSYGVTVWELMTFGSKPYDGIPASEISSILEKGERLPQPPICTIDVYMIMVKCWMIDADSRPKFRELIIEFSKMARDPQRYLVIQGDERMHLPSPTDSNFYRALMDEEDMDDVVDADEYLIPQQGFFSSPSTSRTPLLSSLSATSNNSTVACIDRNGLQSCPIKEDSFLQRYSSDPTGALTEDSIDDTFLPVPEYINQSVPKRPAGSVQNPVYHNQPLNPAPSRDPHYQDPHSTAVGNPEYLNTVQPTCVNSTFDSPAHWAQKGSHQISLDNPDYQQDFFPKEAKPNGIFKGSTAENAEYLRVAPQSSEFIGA

| SMILES | IC50 [1] | IC50 (EML4-ALK kinase) | IC50 (EGFR-C797S/T790M/L858R) | IC50 (EGFR-WT) | IC50 [2] |
| --- | --- | --- | --- | --- | --- |
| COc1cc(N2CCC(N3CCN(C)CC3)CC2)c(C)cc1Nc1ncc(Cl)c(Nc2ccc(C)cc2P(C)(C)=O)n1 [Compound 1] | 48.3 nM | 14.9 nM | 22.2 nM | 95.4 nM | 14.6 nM |
| COc1cc(N2CCC(N(C)C)CC2)c(C)cc1Nc1ncc(Cl)c(Nc2ccc(C)cc2P(C)(C)=O)n1 [Compound 5] | – | 16.3 nM | 30 nM | 113 nM | – |
| COc1cc(N2CCC(N3CCN(C)CC3)CC2)c(C)cc1Nc1ncc(Br)c(Nc2cc(C)ccc2P(C)(C)=O)n1 [Compound 9] | – | – | – | – | 24.1 nM |
| COc1cc(N2CCC(N3CCN(C)CC3)CC2)c(C)cc1Nc1ncc(Br)c(Nc2ccc(F)cc2P(C)(C)=O)n1 [Compound 11] | 21.6 nM | 31.2 nM | – | – | 17.3 nM |
| CCc1cc(Nc2ncc(Br)c(Nc3ccc(C)cc3P(C)(C)=O)n2)c(OC)cc1N1CCC(N2CCN(C)CC2)CC1 [Compound 12] | 24.6 nM | 21.3 nM | – | – | 8.1 nM |
| COc1cc(N2CCC(N3CCN(C)CC3)CC2)c(Br)cc1Nc1ncc(Br)c(Nc2ccc(C)cc2P(C)(C)=O)n1 [Compound 32] | 16.9 nM | 13.7 nM | 15.9 nM | 131 nM | 3.8 nM |
| COc1cc(N2CCC(N3CCN(C)CC3)CC2)c(C)cc1Nc1ncc(Cl)c(Nc2cccc(C)c2P(C)(C)=O)n1 [Control compound 1, reference compound] | 156 nM | > 250 nM | > 250 nM | > 250 nM | 166 nM |
| COc1cc(N2CCC(N3CCN(C)CC3)CC2)c(C)cc1Nc1ncc(Cl)c(Nc2ccccc2P(C)(C)=O)n1 [Control compound 2, reference compound] | – | > 250 nM | > 250 nM | > 250 nM | 172 nM |
| COc1cc(N2CCC(N3CCN(C)CC3)CC2)ccc1Nc1ncc(Cl)c(Nc2ccc(C)cc2P(C)(C)=O)n1 [Control compound 3, reference compound] | – | 106 nM | > 250 nM | > 250 nM | 216 nM |
